Measurements published in PubChem BioAssay AID624417 (National Center for Advancing Translational Sciences (NCATS), 2012).
Screen size: about 410,000 compounds; about 6,400 (1.6%) were called active. The inconclusive results got no clear call from the source; some entries with a clear call stand among them for comparison. Calls come from the whole dose curve; as a rule, active = well fitted inhibition curve with a large enough effect; inconclusive = small, poorly fitted or top-dose-only effect; inactive = no such curve, though single readings can be large or run the other way. No potency is given beside an inconclusive call; the fits are too rough.

These compounds were tested against Glucagon-like peptide 1 receptor (Homo sapiens) (UniProt P43220) (assay: qHTS of GLP-1 Receptor Inverse Agonists (Inhibition Mode)). Details: HEK293 GLP-1R CRE-luciferase, luminescence, 24 h, GLP-1R form is constitutively active; series mostly up to 38.3 µM.
Procedure, shortened: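 Luminescence readout: a drop in cAMP-driven luciferase signal flags inverse agonism at a constitutively active GLP-1R stably expressed in HEK293. Compound exposure lasted 24 hr at 37 deg C, 5% CO2.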
Note: nearly all actives have a fitted effect of over 55% in size.
Potency is the fitted concentration of half-maximal effect; tags give direction and shape of the fitted curve.

Chain of UniProt P43220 (P43220 whole entry, looked up): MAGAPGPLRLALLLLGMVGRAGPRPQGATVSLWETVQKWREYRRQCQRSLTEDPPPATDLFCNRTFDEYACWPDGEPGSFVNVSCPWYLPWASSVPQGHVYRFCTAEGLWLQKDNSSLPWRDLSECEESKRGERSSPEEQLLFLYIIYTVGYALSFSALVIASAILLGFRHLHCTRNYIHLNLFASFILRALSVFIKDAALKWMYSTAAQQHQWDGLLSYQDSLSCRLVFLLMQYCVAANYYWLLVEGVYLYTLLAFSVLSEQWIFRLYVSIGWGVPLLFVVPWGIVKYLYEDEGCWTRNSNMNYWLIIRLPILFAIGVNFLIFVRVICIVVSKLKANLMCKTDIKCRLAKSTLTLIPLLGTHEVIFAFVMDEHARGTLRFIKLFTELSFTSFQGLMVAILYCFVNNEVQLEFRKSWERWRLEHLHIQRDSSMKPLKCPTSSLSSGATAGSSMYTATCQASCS

Row | Compound | Potency
1 | Cc1ccccc1OCC(=O)Nc1ccc2nc(SCC(=O)N(C)c3ccccc3)sc2c1 | inconclusive [inhibitor, partial curve, poor fit]
2 | CC[C@]12c3[nH]c4cc(-c5ccco5)ccc4c3CCN1C(=O)[C@@H](CC(=O)NCCC1=CCCCC1)C[C@@H]2C(=O)N1CCN(C(=O)C2CC2)CC1 | inconclusive [inhibitor, single point]
3 | CC(C)Nc1nc(Oc2cccc(Cl)c2Cl)cc(C(F)(F)F)n1 | inconclusive [inhibitor, partial curve, poor fit]
4 | Cn1ncc2c(NNC(=O)c3ccccc3Cl)ncnc21 | inactive
5 | Cc1ccc(N2C(=O)C3C(c4ccccc4)(C2=O)C3(c2ccccc2)c2ccccc2)cc1 (centres undefined) | inconclusive [inhibitor, partial curve, poor fit]
6 | COC(=O)[C@@]1(Sc2ccc(C)cc2)CC(=O)N(c2cccc(SC)c2)[C@@H]1c1ccccc1 | inconclusive [inhibitor, full curve, poor fit]
7 | O=C(NCCc1ccc(Cl)cc1)C1CC(=O)N(CCc2ccccc2)C1 (centres undefined) | inconclusive [inhibitor, partial curve]
8 | COc1ccc(C2=NOC(Cn3nc(C(=O)NCc4cccs4)cc3-c3ccccc3)C2)cc1 (centres undefined) | inconclusive [inhibitor, single point]
9 | O=C(/C=C/c1ccc2c(c1)OCO2)Nc1nc(-c2ccccc2)cs1 | inconclusive [inhibitor, partial curve, poor fit]
10 | COc1cccc(NC(=O)C2CCCN(c3nnc(-n4c(C)ccc4C)s3)C2)c1 (centres undefined) | inactive
11 | CC(C)C[C@H]1CN=C(Nc2ccccc2)N1CCc1ccc(F)cc1 | inconclusive [inhibitor, single point]
12 | CCC(C)OC(=O)c1[nH]c2c(c1C)C(=O)CC(c1ccc(N(C)C)cc1)C2 (centres undefined) | inconclusive [inhibitor, partial curve, poor fit]
13 | COCc1nnc(NC(=O)c2ccc(S(=O)(=O)N3CCCc4ccccc43)cc2)o1 | inconclusive [inhibitor, single point]
14 | C=CCn1c(NCc2ccccc2O)nc2ccccc21 | inconclusive [inhibitor, single point]
15 | COc1cccc2c1C(=O)c1c(O)c3c(c(O)c1C2=O)C[C@](O)(C(C)=O)C[C@H]3O[C@@H]1C[C@@H](N)[C@@H](O)[C@@H](C)O1 | active: 2.82 µM
16 | CCN(CC)c1ccc(NC(=O)c2cc(S(=O)(=O)N3CCc4ccccc43)cn2C)c(C)c1 | inactive
17 | O=S(=O)(Nc1ccc(N=Nc2ccccc2)cc1)c1ccccc1 | inactive
18 | Cc1ccc2cc(C(c3nnnn3CC3CCCO3)N3CCc4ccccc4C3)c(=O)[nH]c2c1 (centres undefined) | inconclusive [inhibitor, single point]
19 | Cc1cc(NC(=O)COC(=O)C2CCN(S(=O)(=O)c3c(Cl)cccc3Cl)CC2)no1 | inactive
20 | FC(F)(F)c1cnc(NNC(=S)Nc2ccc(Cl)cc2)c(Cl)c1 | inconclusive [inhibitor, partial curve]

Row | Compound | Potency
21 | COc1ccc(C(OCC(O)CNCCc2ccccc2)c2ccc(OC)cc2)cc1 (centres undefined) | inconclusive [inhibitor, partial curve, poor fit]
22 | COc1ccc(C[C@H]2CN3C(=NC[C@H]3Cc3ccccc3)N2CCNC(=O)CCC2CCCCC2)cc1 | inconclusive [inhibitor, single point]
23 | Cc1ccccc1OCC(=O)N(Cc1ccc(N(C)C)cc1)CC1CCCO1 (centres undefined) | inconclusive [inhibitor, single point]
24 | Cc1cc(C)c(C)c(S(=O)(=O)Nc2ccc(C(=O)N3CCCC3)cc2)c1C | inconclusive [inhibitor, single point]
25 | O=C(Nc1nc(-c2ccc(Cl)cc2)cs1)NC1CCCCC1 | inconclusive [inhibitor, partial curve, poor fit]
26 | CC(=O)N1Cc2ccccc2C(C)CC12CCCCC2 (centres undefined) | inconclusive [inhibitor, single point]
27 | c1ccc2c(Nc3nc(-c4ccncc4)nc4ccccc34)cccc2c1 | inconclusive [inhibitor, partial curve]
28 | CC(=O)N1c2ccccc2C(=O)C1N1CCN(c2cccc(C(F)(F)F)c2)CC1 (centres undefined) | inconclusive [inhibitor, single point]
29 | CNC(=S)/N=C/NOCc1ccc(Cl)cc1Cl | inconclusive [inhibitor, partial curve, poor fit]
30 | C/C(=N\NC(=S)NCc1ccccc1)c1ccc(C)o1 | inconclusive [inhibitor, single point]
31 | O=C(C1CCC1)N1CCCc2cc(S(=O)(=O)Nc3ccc(F)cc3)ccc21 | inconclusive [inhibitor, single point]
32 | Cc1ccc(/C=C/C(=O)N2CCCC(C)C2)cc1 (centres undefined) | inconclusive [inhibitor, single point]
33 | O=C(c1ccc(=O)oc1)N1CCN(C(c2ccccc2)c2ccccc2)CC1 | inactive
34 | COc1ccccc1N(CC(=O)Nc1ccc(C)c(Cl)c1)S(=O)(=O)c1ccc(C)cc1 | inconclusive [inhibitor, single point]
35 | Cc1onc(-c2ccccc2)c1-c1nnc(-c2ccccc2C(F)(F)F)o1 | inconclusive [inhibitor, single point]
36 | C#CC(C)(CC)NC(=O)c1cc2c(n(-c3ccc(Cl)cc3)c1=O)CC(C)(C)CC2=O (centres undefined) | inactive
37 | Cc1ccc(S(=O)(=O)NCCC(=O)NC(C)CCc2ccccc2)cc1 (centres undefined) | inconclusive [inhibitor, single point]
38 | COc1ccc(OC(=O)c2cnn(-c3ccccc3)c2C)cc1 | inconclusive [inhibitor, single point]
39 | Cc1cc(C)cc(NS(=O)(=O)c2ccc3[nH]cc(C(=O)N4CCCCCC4)c(=O)c3c2)c1 | inconclusive [inhibitor, partial curve, poor fit]
